Measurements published in PubChem BioAssay AID485367 (National Center for Advancing Translational Sciences (NCATS), 2010).
The campaign covered roughly 330,000 compounds. About 560 (0.17%) were called active. The inconclusive results got no clear call from the source; some entries with a clear call stand among them for comparison. Calls come from the whole dose curve; as a rule, active = well fitted inhibition curve with a large enough effect; inconclusive = small, poorly fitted or top-dose-only effect, or effect the other way; inactive = flat fitted curve, though single readings scatter. Potencies of inconclusive entries are left out as doubtful fits.

biological target: ATP-dependent 6-phosphofructokinase (Trypanosoma brucei brucei) (UniProt O15648); test: qHTS Assay to Find Inhibitors of T. brucei phosphofructokinase; note: nearly all actives have a fitted effect of over 60% in size;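 for activity, negative = inhibition: 0% = uninhibited 1x PFK enzyme wells and -100% = no-enzyme wells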; conditions: T. brucei PFK, ADP-Glo luminescence; activity, negative = inhibition: at 57.5 µM (top of the series)
Chain of UniProt O15648 (O15648 whole entry, looked up): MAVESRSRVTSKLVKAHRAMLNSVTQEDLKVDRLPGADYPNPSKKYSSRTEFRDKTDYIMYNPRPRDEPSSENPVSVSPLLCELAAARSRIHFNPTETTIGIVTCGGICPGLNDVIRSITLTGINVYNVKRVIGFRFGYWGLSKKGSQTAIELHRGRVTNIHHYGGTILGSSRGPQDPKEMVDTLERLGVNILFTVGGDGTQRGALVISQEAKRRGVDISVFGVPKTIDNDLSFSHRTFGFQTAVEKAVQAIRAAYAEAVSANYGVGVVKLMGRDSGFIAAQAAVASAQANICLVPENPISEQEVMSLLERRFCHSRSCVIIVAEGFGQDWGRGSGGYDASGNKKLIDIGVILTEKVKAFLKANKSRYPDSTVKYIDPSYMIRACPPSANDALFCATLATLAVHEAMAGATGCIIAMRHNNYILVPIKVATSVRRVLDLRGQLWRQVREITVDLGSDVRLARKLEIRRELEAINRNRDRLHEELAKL
Outline: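 Compounds were pin-transferred as a titration series up to 57 uM into substrate buffer (0.5 mM F6P, 0.1 mM ATP, pH 8.0), then 1.25 nM PFK was added and reactions ran 45 min before ADP-Glo detection.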
Potency is the fitted concentration of half-maximal effect; tags give direction and shape of the fitted curve.

Compound	activity, negative = inhibition	Potency
C#CCOCCOCCOCCNc1nc(N2CCN(C(=O)CCCCCCCCCCNC(=O)[C@H](CCCCN)n3cc(CCO)nn3)CC2)nc(N2CCN(C(=O)CCCCCCCCCCNC(=O)[C@H](CCCN=C(N)N)n3cc(C[C@@H](C)CC)nn3)CC2)n1	inactive: -4.6%	
Cc1nc(S/C(=C\c2ccc(-c3ccc(C(=O)O)c(Cl)c3)o2)C(=O)O)n[nH]1	inactive: 10.5%	
CN=C1N(C)C[C@@H]2[C@@H]3C(=O)N(C)C(=O)[C@@H]3[C@](Cc3ccccc3)(C(=O)OC)N12		inconclusive [falling, single point]
CSc1nc(SCCO)c2sc3nc(-c4ccco4)c4c(c3c2n1)CC(C)(C)OC4		inconclusive [falling, partial curve]
Fc1ccc(C2CC(c3ccccc3)Nc3ncnn32)cc1 (configuration not stated)	inactive: -8.13%	
COc1cccc2c(=O)n(CC(=O)Nc3cccc(F)c3)ccc12	inactive: 2.59%	
Cc1ccc(SSc2cc(C)ccc2N)c(N)c1		active: 21.3 µM
CCOC(=O)c1c(NC(=O)C[n+]2ccccc2)sc2c1CCCC2		inconclusive [falling, single point]
O=C(O)c1ccccc1NS(=O)(=O)c1cccc(NS(=O)(=O)c2cc(Br)ccc2Br)c1		inconclusive [activator, single point]
O=C(COC(=O)c1cc2c(s1)CCC2)Nc1ccc(F)cc1		active: 10.7 µM
CCn1c(C)nc2cc(C(=O)N/N=C/c3ccc(O)c(O)c3O)ccc21		inconclusive [falling, partial curve]
O=C(O)/C(=C\c1c(C(=O)O)[nH]c2cc(Cl)cc(Cl)c12)c1ccccc1		inconclusive [activator, single point]
O=C(CNc1ccc(Br)cc1)Nc1ccc(S(=O)(=O)N2CCCC2)cc1		inconclusive [falling, single point]
CC1=NN(C(=O)c2c(Br)c(C)nn2C)C(O)(C(F)(F)F)C1 (configuration not stated)		inconclusive [falling, single point]
O=C(COC(=O)c1ccc(F)cc1F)Nc1ncccn1		inconclusive [falling, single point]
CC(=O)Nc1ccc(NC(=O)Cn2nc([N+](=O)[O-])c(Br)c2C)cc1		active: 12 µM
O=C(C1CCC1)N1CCN(c2ccnc3cc(Cl)ccc23)CC1		inconclusive [falling, single point]
CCOc1cc(C(=O)Nc2nnc(C)s2)cc(OCC)c1OCC		inconclusive [falling, single point]
C/C=C\C=C\C(=O)N1CC2(CC(c3cccc(NC(=O)/C(C)=C\C)c3)=NO2)C[C@H]1C(N)=O (some centres not stated)		inconclusive [falling, partial curve]
CCOc1cc(/C=N/NC(=O)C2CCCC2)ccc1O		inconclusive [falling, single point]
CCN(CC)CCOC(=O)c1ccc(N/C=C(/C#N)c2nc(-c3ccc(OC)cc3)cs2)cc1		inconclusive [activator, single point]
Cn1c(N)c(C(=O)COC(=O)CSc2cccc3cccc(Cl)c23)c(=O)n(C)c1=O	inactive: -2.11%	
Nc1ccccc1N=Cc1ccc(-c2cccc(Cl)c2)o1	inactive: -5.79%	

Compound	activity, negative = inhibition	Potency
Cc1ccc(CONC(=O)c2cccc(C)c2)cc1		inconclusive [falling, single point]
CCC(C)Oc1ccc(/C=C/c2[nH]c(=O)[nH]c(=O)c2[N+](=O)[O-])cc1OC (configuration not stated)		inconclusive [falling, single point]
COc1ccc(CC(=O)Nc2ccc(S(=O)(=O)Nc3nccs3)cc2)cc1		inconclusive [falling, single point]
Nc1ncnc2c1ncn2[C@@H]1O[C@H](CNCC(O)CO)[C@@H](O)[C@H]1O (some centres not stated)	inactive: -2.6%	
CSc1ccccc1NC(=O)c1noc2c1CCC2		active: 16.9 µM
C/C(=N\NC(=O)COc1cccc(Br)c1)c1ccc2c(c1)OCCO2		inconclusive [falling, single point]
C#CCOCCOCCOCCNc1nc(N2CCN(C(=O)CCCCCCCCCCNC(=O)[C@H]([C@@H](C)CC)n3cc(CCCCCN)nn3)CC2)nc(N2CCN(C(=O)CCCCCCCCCCNC(=O)[C@@H]([C@H](C)O)n3cc(C)nn3)CC2)n1		inconclusive [falling, single point]
Cc1cc(NS(=O)(=O)c2ccc(NC(=O)Nc3cccc(C(F)(F)F)c3)cc2)no1		inconclusive [falling, single point]
Cc1cc(C)c2cc(CN(CCO)C(=O)Nc3ccc(F)cc3)c(=O)[nH]c2c1		inconclusive [falling, single point]
Nc1cc(-c2ccncc2)c[nH]c1=O		inconclusive [activator, single point]
Cc1cccnc1NC(=O)CCc1nnc2ccc(NCc3ccco3)nn12		inconclusive [falling, single point]
O=C(O)/C=C\C(=O)Nc1ccc(N2CCN(c3cccc(Cl)c3)CC2)cc1		inconclusive [falling, single point]
NNC(=O)CNc1cccc(Br)c1		active: 15.1 µM
CN(C)c1ccc(C(=O)OCC(=O)c2cccs2)cc1	inactive: -0.389%	
COc1ccccc1N(C)S(=O)(=O)c1ccc(C(=O)Nc2nnc(C)s2)cc1	inactive: 12.7%	
O=C(COc1ccc(S(=O)(=O)N2CCc3ccccc32)cc1Cl)NCc1ccccn1	inactive: -4.44%	
O=C(O)c1cnn2c1C(=O)N(Cc1cccs1)CC2		inconclusive [falling, single point]
Cc1ccc(C)c(S(=O)(=O)Nc2ccc(O)c3ccccc23)c1	inactive: 0.844%	
CCOC(=O)C1=C(N)OC(C)=C(C#N)C1c1ccco1 (configuration not stated)		inconclusive [falling, single point]
O=c1[nH]c(SCc2nc3ccccc3c(=O)n2-c2ccccc2)nc2ccccc12		inconclusive [activator, full curve, poor fit]
O=C(O)c1ccccc1N/C=C\[N+](=O)[O-]		inconclusive [activator, single point]
O=C(NNc1cc(Cl)cc(Cl)c1)c1cccs1		inconclusive [falling, partial curve]
O=c1c2cc(F)ccc2sn1-c1ccc(F)cc1		active: 7.57 µM

Compound	activity, negative = inhibition	Potency
O=C(Nc1cccc(C(=O)N2CCN(c3cccc(Cl)c3)CC2)c1)c1ccccc1		inconclusive [falling, partial curve]
CC1CCCC(C)N1C(=O)COC(=O)/C=C/c1ccc(Br)o1 (configuration not stated)		inconclusive [falling, single point]
CCOC(=O)C1CCN(C(=S)Nc2ccc(C)cc2)CC1	inactive: -0.555%	
COc1ccccc1N(CC(=O)NCc1ccco1)S(=O)(=O)c1ccc(C)cc1		inconclusive [falling, single point]
Cc1ccc(NC(=O)CCOc2ccccc2)cc1S(=O)(=O)Nc1ccccc1Cl		inconclusive [falling, single point]
COc1ccc(CC(=O)Nc2ccc(F)c(Cl)c2)cc1S(=O)(=O)N1CCOCC1		inconclusive [falling, single point]
Cc1nnc(N=c2ssnc2Cl)o1		inconclusive [falling, single point]
COc1ccc(C(=S)N2CCN(c3ccccc3Cl)CC2)cc1OC		inconclusive [falling, single point]
COc1cccc(-c2nnc(NC(=O)Cc3cccs3)s2)c1		inconclusive [falling, partial curve, poor fit]
Cc1ccccc1C[C@H](C(=O)O)N1C(=O)c2ccc(C(=O)O)cc2C1=O		inconclusive [falling, single point]
COCc1cc(C)nc(SCC[N+](C)(C)CC(=O)Nc2cccc(C)c2)c1C#N		inconclusive [falling, full curve, poor fit]
Cc1cc(C)c2c(c1)c(C)cc1nnc(SCC(=O)NCc3ccco3)n12		inconclusive [falling, single point]
CN(C(=O)c1ccc(NC(=O)Cc2ccc([N+](=O)[O-])cc2)cc1)C1CCCC1		inconclusive [falling, single point]
COc1ccccc1C(=O)NNC(=O)c1cccc(C)c1	inactive: -1.47%	
CC(C(=O)N1c2ccc(F)cc2CCC1C)N1C(=O)c2ccccc2C1=O (configuration not stated)		inconclusive [falling, single point]
CC(C)c1nc2sc3c(SCC(=O)NCc4ccco4)ncnc3c2c2c1CCC2	inactive: 1.97%	
N#CC(C#N)=Cc1cccn1-c1ccc(S(N)(=O)=O)cc1		inconclusive [falling, single point]
Cc1ccc(C)c(Cn2nnc3c(=O)[nH]c(C4CCCN(S(=O)(=O)Cc5ccccc5)C4)nc32)c1 (configuration not stated)		inconclusive [falling, single point]
COc1ccc2c(CC(=O)OCC(=O)Nc3cccc(C)c3)coc2c1		inconclusive [falling, partial curve]
CC1(C)CC(=O)C(C(C2=C(O)CC(C)(C)CC2=O)c2ccc(Br)s2)C(=O)C1 (configuration not stated)		inconclusive [falling, single point]
COc1ccc(NC(=O)c2cc(-c3ccc(C)o3)nc3ccccc23)cc1OC		inconclusive [falling, single point]
